# From the supplement of paper PMC8728848
# The other results are listed elsewhere or left out.
# B1: MIC1 (Neospora caninum), Q8WRS0 (protein)
# chain: AGAKTYGEASQPSASARSLQGALDTWCQEVFKKLCDDGYSKMCIPANQVVARQGLGRKDQQKLVWRCYDSAAFLAEGDENNVLSCVDDCGVSIPCPGGVDRDNSTHATRHDELSQLIKEGVVRYCSGFQAAANSYCNKRYPGTVARKSKGFGHKEPVKWRCYKPESLLFSVFSECVSNCGTTWSCPGGRLGTATNLDKKHFTDESGILQALTSVPKACPVGLVCLPRDQNPPACLDDNGNVPE
# Tests used:
# Test in all cases: glycan array binding signal (z-score within array); higher = stronger binding
# Conditions in all cases: glycan notation: IUPAC condensed, linker removed
# [1] = biological target: Neu5Ac(a2-3)Gal(b1-4)[Fuc(a1-3)]GlcNAc(b1-3)Gal(b1-4)[Fuc(a1-3)]GlcNAc(b1-3)Gal(b1-4)Glc
# Method in brief: (§1)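 Glycan array data came from 3228 arrays in the Consortium for Functional Glycomics database, and only arrays with an available protein sequence were kept. Glycan names were put into IUPAC-condensed notation, and columns mapping to the same glycan were averaged. The binding signal is a within-array Z-score, averaged across arrays of one protein sequence run at different concentrations or buffers and across linkers. A negative Z-score can be read as non-binding.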
# [2] = biological target: Neu5Ac(a2-3)Gal(b1-4)[Fuc(a1-3)]GlcNAc6S(b1-3)Gal(b1-4)Glc
# Method in brief: as §1
# [3] = biological target: Neu5Ac(a2-3)Gal6S(b1-4)[Fuc(a1-3)]GlcNAc(b1-3)Gal(b1-4)Glc
# Method in brief: as §1
# [4] = biological target: Neu5Ac(a2-3)Gal6S(b1-4)[Fuc(a1-3)]GlcNAc6S(b1-3)Gal(b1-4)Glc
# Method in brief: as §1
# [5] = biological target: Neu5Ac(a2-3)[GalNAc(b1-4)]Gal(b1-3)GalNAc(b1-4)[Neu5Ac(a2-3)]Gal(b1-4)Glc
# Method in brief: as §1
# [6] = biological target: Neu5Ac(a2-3)[GalNAc(b1-4)]Gal(b1-4)Glc
# Method in brief: as §1
# [7] = biological target: Neu5Ac(a2-6)Gal(b1-3)GlcNAc(b1-3)[Fuc(a1-3)[Gal(b1-4)]GlcNAc(b1-6)]Gal(b1-4)Glc
# Method in brief: as §1
# [8] = biological target: Neu5Ac(a2-6)Gal(b1-3)GlcNAc(b1-3)[Gal(b1-4)GlcNAc(b1-6)]Gal(b1-4)Glc
# Method in brief: as §1
# Neu5Ac(a2-6)Gal(b1-4)Glc = biological target: Neu5Ac(a2-6)Gal(b1-4)Glc
# Method in brief: as §1
# [9] = biological target: Neu5Ac(a2-6)Gal(b1-4)GlcNAc
# Method in brief: as §1
# [10] = biological target: Neu5Ac(a2-6)Gal(b1-4)GlcNAc(b1-2)Man(a1-3)[Neu5Ac(a2-6)Gal(b1-4)GlcNAc(b1-2)Man(a1-6)]Man(b1-4)GlcNAc(b1-4)GlcNAc
# Method in brief: as §1
# [11] = biological target: Neu5Ac(a2-6)Gal(b1-4)GlcNAc(b1-2)[Neu5Ac(a2-3)Gal(b1-4)GlcNAc(b1-4)]Man(a1-3)[Neu5Ac(a2-3)Gal(b1-4)GlcNAc(b1-2)Man(a1-6)]Man(b1-4)GlcNAc(b1-4)GlcNAc
# Method in brief: as §1
# [12] = biological target: Neu5Ac(a2-6)Gal(b1-4)GlcNAc(b1-3)Gal(b1-4)Glc
# Method in brief: as §1
# [13] = biological target: Neu5Ac(a2-6)Gal(b1-4)GlcNAc(b1-3)Gal(b1-4)[Fuc(a1-3)]Glc
# Method in brief: as §1
# [14] = biological target: Neu5Ac(a2-6)Gal(b1-4)GlcNAc(b1-3)[Neu5Ac(a2-6)Gal(b1-4)GlcNAc(b1-6)]Gal(b1-4)Glc
# Method in brief: as §1
# [15] = biological target: Neu5Ac(a2-6)Gal(b1-4)GlcNAc(b1-6)[Gal(b1-3)GlcNAc(b1-3)]Gal(b1-4)Glc
# Method in brief: as §1
# [16] = biological target: Neu5Ac(a2-6)Gal(b1-4)[Fuc(a1-3)]GlcNAc(b1-3)Gal(b1-4)Glc
# Method in brief: as §1
# Neu5Ac(a2-8)Neu5Ac = biological target: Neu5Ac(a2-8)Neu5Ac
# Method in brief: as §1
# [17] = biological target: Neu5Ac(a2-8)Neu5Ac(a2-3)Gal(b1-3)GalNAc(b1-4)[Neu5Ac(a2-3)]Gal(b1-4)Glc
# Method in brief: as §1
# [18] = biological target: Neu5Ac(a2-8)Neu5Ac(a2-3)Gal(b1-3)GalNAc(b1-4)[Neu5Ac(a2-8)Neu5Ac(a2-3)]Gal(b1-4)Glc
# Method in brief: as §1
# [19] = biological target: Neu5Ac(a2-8)Neu5Ac(a2-3)Gal(b1-4)Glc
# Method in brief: as §1
# [20] = biological target: Neu5Ac(a2-8)Neu5Ac(a2-3)[Gal(b1-3)GalNAc(b1-4)]Gal(b1-4)Glc
# Method in brief: as §1
# [21] = biological target: Neu5Ac(a2-8)Neu5Ac(a2-3)[GalNAc(b1-4)]Gal(b1-4)Glc
# Method in brief: as §1
# [22] = biological target: Neu5Ac(a2-8)Neu5Ac(a2-8)Neu5Ac
# Method in brief: as §1
# [23] = biological target: Neu5Ac(a2-8)Neu5Ac(a2-8)Neu5Ac(a2-8)Neu5Ac
# Method in brief: as §1
# [24] = biological target: Neu5Ac(a2-8)Neu5Ac(a2-8)Neu5Ac(a2-8)Neu5Ac(a2-8)Neu5Ac
# Method in brief: as §1
# [25] = biological target: Neu5Ac(a2-8)Neu5Ac(a2-8)Neu5Ac(a2-8)Neu5Ac(a2-8)Neu5Ac(a2-8)Neu5Ac
# Method in brief: as §1
# [26] = biological target: Neu5Ac(a2-8)Neu5Ac(a2-8)Neu5Ac(a2-8)Neu5Ac(a2-8)Neu5Ac(a2-8)Neu5Ac(a2-8)Neu5Ac
# Method in brief: as §1
# [27] = biological target: Neu5Ac(a2-8)Neu5Ac(a2-8)Neu5Ac(a2-8)Neu5Ac(a2-8)Neu5Ac(a2-8)Neu5Ac(a2-8)Neu5Ac(a2-8)Neu5Ac
# Method in brief: as §1
# [28] = biological target: Neu5Ac(a2-8)Neu5Ac(a2-8)Neu5Ac(a2-8)Neu5Ac(a2-8)Neu5Ac(a2-8)Neu5Ac(a2-8)Neu5Ac(a2-8)Neu5Ac(a2-8)Neu5Ac
# Method in brief: as §1
# [29] = biological target: Neu5Ac(a2-8)Neu5Ac(a2-8)Neu5Ac(a2-8)Neu5Ac(a2-8)Neu5Ac(a2-8)Neu5Ac(a2-8)Neu5Ac(a2-8)Neu5Ac(a2-8)Neu5Ac(a2-8)Neu5Ac
# Method in brief: as §1
# [30] = biological target: Neu5Ac(a2-8)Neu5Ac(a2-8)Neu5Ac(a2-8)Neu5Ac(a2-8)Neu5Ac(a2-8)Neu5Ac(a2-8)Neu5Ac(a2-8)Neu5Ac(a2-8)Neu5Ac(a2-8)Neu5Ac(a2-8)Neu5Ac
# Method in brief: as §1
# [31] = biological target: Neu5Ac(a2-9)Neu5Ac(a2-3)Gal(b1-4)Glc
# Method in brief: as §1
# Neu5Ac(b2-3)Gal(b1-4)Glc = biological target: Neu5Ac(b2-3)Gal(b1-4)Glc
# Method in brief: as §1
# Neu5Ac(b2-6)Gal(b1-4)Glc = biological target: Neu5Ac(b2-6)Gal(b1-4)Glc
# Method in brief: as §1
# [32] = biological target: Neu5Ac9Ac(a2-6)Gal(b1-4)GlcNAc
# Method in brief: as §1
# Neu5Gc(a2-3)Gal(b1-4)Glc = biological target: Neu5Gc(a2-3)Gal(b1-4)Glc
# Method in brief: as §1
binder,measurement,setting,value
B1,glycan array binding signal (z-score),[1],-0.024
same,glycan array binding signal (z-score),[2],0.848
same,glycan array binding signal (z-score),[3],6.08
same,glycan array binding signal (z-score),[4],4.92
same,glycan array binding signal (z-score),[5],-0.415
same,glycan array binding signal (z-score),[6],1.26
same,glycan array binding signal (z-score),[7],-0.441
same,glycan array binding signal (z-score),[8],-0.431
same,glycan array binding signal (z-score),Neu5Ac(a2-6)Gal(b1-4)Glc,-0.41
same,glycan array binding signal (z-score),[9],-0.395
same,glycan array binding signal (z-score),[10],-0.397
same,glycan array binding signal (z-score),[11],-0.237
same,glycan array binding signal (z-score),[12],-0.387
same,glycan array binding signal (z-score),[13],-0.416
same,glycan array binding signal (z-score),[14],-0.403
same,glycan array binding signal (z-score),[15],-0.441
same,glycan array binding signal (z-score),[16],-0.441
same,glycan array binding signal (z-score),Neu5Ac(a2-8)Neu5Ac,-0.441
same,glycan array binding signal (z-score),[17],-0.441
same,glycan array binding signal (z-score),[18],-0.441
same,glycan array binding signal (z-score),[19],-0.431
same,glycan array binding signal (z-score),[20],-0.441
same,glycan array binding signal (z-score),[21],-0.441
same,glycan array binding signal (z-score),[22],-0.438
same,glycan array binding signal (z-score),[23],0.071
same,glycan array binding signal (z-score),[24],1.47
same,glycan array binding signal (z-score),[25],0.685
same,glycan array binding signal (z-score),[26],0.538
same,glycan array binding signal (z-score),[27],-0.115
same,glycan array binding signal (z-score),[28],-0.166
same,glycan array binding signal (z-score),[29],-0.342
same,glycan array binding signal (z-score),[30],-0.291
same,glycan array binding signal (z-score),[31],-0.14
same,glycan array binding signal (z-score),Neu5Ac(b2-3)Gal(b1-4)Glc,-0.441
same,glycan array binding signal (z-score),Neu5Ac(b2-6)Gal(b1-4)Glc,-0.441
same,glycan array binding signal (z-score),[32],-0.428
same,glycan array binding signal (z-score),Neu5Gc(a2-3)Gal(b1-4)Glc,-0.377
